Experimental data taken from article PMC6764942, “TFF3 interacts with LINGO2 to regulate EGFR activation for protection against colitis and gastrointestinal helminths” (Nature Communications, 2019).
These are yes or no findings as the source states them, for the method shown. For some assays here: Binding seen in cells or lysates may run through a third protein. Some results given as binding are weak or reduced against the parent protein; the word gives no strength. For some assays here: Sequences can lack the tags named with a protein. Each block holds one molecule with its values, some of them ahead of it.

The chains behind the UniProt entries cited, without tags or fusion partners. Residues count along the entry.
UniProt Q3URE9, residues 28-606: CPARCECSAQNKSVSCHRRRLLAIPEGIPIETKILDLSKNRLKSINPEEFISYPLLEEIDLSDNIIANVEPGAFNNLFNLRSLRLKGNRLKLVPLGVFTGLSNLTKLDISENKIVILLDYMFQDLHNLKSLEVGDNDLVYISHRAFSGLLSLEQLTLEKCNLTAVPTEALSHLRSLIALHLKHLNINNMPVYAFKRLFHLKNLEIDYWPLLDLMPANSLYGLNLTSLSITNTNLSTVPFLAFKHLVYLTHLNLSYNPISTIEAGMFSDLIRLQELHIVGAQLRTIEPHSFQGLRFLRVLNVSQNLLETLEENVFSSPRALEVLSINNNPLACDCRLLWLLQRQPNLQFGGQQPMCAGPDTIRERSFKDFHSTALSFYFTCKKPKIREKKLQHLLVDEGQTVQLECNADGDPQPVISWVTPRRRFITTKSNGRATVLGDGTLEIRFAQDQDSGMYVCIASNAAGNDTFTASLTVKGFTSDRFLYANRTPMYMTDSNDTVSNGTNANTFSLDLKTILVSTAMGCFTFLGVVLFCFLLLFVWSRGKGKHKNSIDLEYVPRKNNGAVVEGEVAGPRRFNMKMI
UniProt Q7L985, residues 28-606: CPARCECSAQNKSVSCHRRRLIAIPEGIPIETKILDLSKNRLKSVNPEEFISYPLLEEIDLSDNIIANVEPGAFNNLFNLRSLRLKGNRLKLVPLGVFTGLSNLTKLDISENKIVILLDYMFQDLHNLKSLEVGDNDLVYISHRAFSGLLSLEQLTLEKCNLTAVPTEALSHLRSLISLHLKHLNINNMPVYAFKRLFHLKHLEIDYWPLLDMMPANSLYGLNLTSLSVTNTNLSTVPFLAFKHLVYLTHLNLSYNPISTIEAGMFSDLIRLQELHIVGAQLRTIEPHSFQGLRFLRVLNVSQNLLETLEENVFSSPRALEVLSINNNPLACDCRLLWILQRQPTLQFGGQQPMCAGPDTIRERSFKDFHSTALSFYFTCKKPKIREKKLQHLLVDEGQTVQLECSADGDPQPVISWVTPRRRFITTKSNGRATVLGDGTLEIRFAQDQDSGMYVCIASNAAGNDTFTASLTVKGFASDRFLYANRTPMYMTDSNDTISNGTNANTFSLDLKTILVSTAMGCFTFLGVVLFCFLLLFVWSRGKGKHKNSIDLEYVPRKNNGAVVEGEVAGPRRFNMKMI
UniProt P70658: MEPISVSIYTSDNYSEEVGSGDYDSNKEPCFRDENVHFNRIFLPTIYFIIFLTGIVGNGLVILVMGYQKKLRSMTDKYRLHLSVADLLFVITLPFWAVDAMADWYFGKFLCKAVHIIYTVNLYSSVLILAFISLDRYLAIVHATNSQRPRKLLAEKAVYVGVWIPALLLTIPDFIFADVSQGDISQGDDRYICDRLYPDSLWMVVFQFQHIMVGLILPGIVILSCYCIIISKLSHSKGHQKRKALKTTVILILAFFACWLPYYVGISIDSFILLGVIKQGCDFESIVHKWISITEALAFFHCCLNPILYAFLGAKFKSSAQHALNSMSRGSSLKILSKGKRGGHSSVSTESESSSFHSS
UniProt Q9QUN7, residues 25-784: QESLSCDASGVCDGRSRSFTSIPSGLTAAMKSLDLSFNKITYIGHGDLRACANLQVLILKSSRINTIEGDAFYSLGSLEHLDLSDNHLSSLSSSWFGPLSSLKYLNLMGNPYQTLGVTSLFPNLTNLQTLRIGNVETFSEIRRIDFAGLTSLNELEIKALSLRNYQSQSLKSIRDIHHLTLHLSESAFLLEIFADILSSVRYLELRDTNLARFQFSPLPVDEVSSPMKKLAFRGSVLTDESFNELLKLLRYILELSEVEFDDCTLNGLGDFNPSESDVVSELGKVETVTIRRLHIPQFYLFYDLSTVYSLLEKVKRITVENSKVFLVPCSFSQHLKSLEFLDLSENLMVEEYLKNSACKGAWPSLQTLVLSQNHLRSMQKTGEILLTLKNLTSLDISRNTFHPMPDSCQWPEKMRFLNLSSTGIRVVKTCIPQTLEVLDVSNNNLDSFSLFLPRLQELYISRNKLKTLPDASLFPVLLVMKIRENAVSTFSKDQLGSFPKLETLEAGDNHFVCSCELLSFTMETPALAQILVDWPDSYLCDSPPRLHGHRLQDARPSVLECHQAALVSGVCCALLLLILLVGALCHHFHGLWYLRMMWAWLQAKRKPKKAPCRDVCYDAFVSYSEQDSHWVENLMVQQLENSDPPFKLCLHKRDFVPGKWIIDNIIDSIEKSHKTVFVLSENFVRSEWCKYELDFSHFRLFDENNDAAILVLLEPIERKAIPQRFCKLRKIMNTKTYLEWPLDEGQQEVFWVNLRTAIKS

Key:
[1] = target: LINGO2-Flag (mouse) (UniProt Q3URE9); test: co-IP; mixture of 100 ug LINGO2 lysate and 50 ug EGFR lysate incubated with media, 2 ug mIL2 or 2 ug TFF3 for two hours at 4 C, then IP of LINGO2 and blot for EGFR
[2] = target: LINGO2-Flag (mouse) (UniProt Q3URE9); test: co-IP; HEK293 co-transfected with LINGO2 and EGFR constructs; about 0.5 mg total protein; reciprocal IP with anti-Flag or anti-GFP, protein A agarose 2 h at 4 C; normal IgG as negative control
[3] = target: EGFR-GFP (mouse) (UniProt Q01279); test: as above
[4] = target: T1, murine TFF3-Fc (mouse) (UniProt Q62395); test: co-IP; at least 0.6 mg LINGO2-Flag lysate (1% digitonin, 150 mM NaCl, 1 mM MgCl2, 10 mM TrisCl pH 7.4) incubated with 10 ug TFF3-Fc or Fc overnight, precipitated with protein G agarose 2 h at 4 C; blot anti-Flag; only the target purified
T1 sequence: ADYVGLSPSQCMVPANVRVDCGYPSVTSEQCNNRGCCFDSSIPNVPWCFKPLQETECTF

[5] = target: LINGO2, endogenous in human rectosigmoid tissue (human (endogenous in rectosigmoid biopsy tissue)) (UniProt Q7L985); test: proximity ligation; FFPE human rectosigmoid biopsy tissue; goat anti-LINGO2 (R&D AF3679) and mouse anti-TFF3 (eBioscience); Duolink In Situ Orange; single antibody as negative control
[6] = target: LINGO2-Flag (mouse) (UniProt Q3URE9); test: co-IP; same experiment as a6, for the added soluble rTFF3 (2 ug, two hours at 4 C) against LINGO2 in the lysate mixture; read out as loss of co-precipitated EGFR; only the binder purified
[7] = target: CXCR4-GFP on HEK293 transfectants (mouse) (UniProt P70658); test: flow cytometry on cells; HEK293 transfected with GFP-labeled receptors, 24 h later incubated with PBS or 3 ug Alexa Fluor 647 labeled soluble ligand for 16 h at 4 C; double positive (GFP and AF-647) cells counted; only the binder purified
[8] = target: TLR2-GFP on HEK293 transfectants (mouse) (UniProt Q9QUN7); test: condition: 3 μg of Alexa Fluor 647 labeled soluble ligands; flow cytometry on cells; HEK293 transfected with GFP-labeled receptors, 24 h later incubated with PBS or 3 ug Alexa Fluor 647 labeled soluble ligand for 16 h at 4 C; double positive (GFP and AF-647) cells counted; only the binder purified

binding [1]: binds
binding [2]: binds
Molecule: EGFR-GFP (from UniProt Q01279 25-1210) (receptor)

binding [3]: binds
binding [4]: binds
Molecule: LINGO2-Flag (from UniProt Q3URE9 28-606) (receptor)

binding [5]: binds
B1: TFF3, endogenous in human rectosigmoid tissue (protein, UniProt Q07654 22-80)
chain: EEYVGLSANQCAVPAKDRVDCGYPHVTPKECNNRGCCFDSRIPGVPWCFKPLQEAECTF

binding [6]: binds
B2: soluble rTFF3 (unlabeled) (ligand, UniProt Q62395 23-81)
chain: ADYVGLSPSQCMVPANVRVDCGYPSVTSEQCNNRGCCFDSSIPNVPWCFKPLQETECTF

binding [7]: binds
binding [8]: no binding
B3: TFF3-647 (murine recombinant TFF3 labeled with Alexa Fluor 647) (ligand, UniProt Q62395 23-81)
chain: ADYVGLSPSQCMVPANVRVDCGYPSVTSEQCNNRGCCFDSSIPNVPWCFKPLQETECTF
modifications: Alexa Fluor 647 dye (site not stated)
